According to the supplement of paper PMC3334620:
In all, about 33,000 sequences were measured (“E-score (-0.5 to 0.5)”: median about -0.016, highest 2% from about 0.31 on). The list shows a part of the results.

Each sequence was assayed against Cst6 (UniProt P40535) (assay: PBM E-score (8-mer binding enrichment) (E-score (-0.5 to 0.5)); higher = stronger / more preferred TF binding; most listed sequences are background and not binding sites). Conditions: protein concentration: 200 nM; construct: GST-DNA-binding domain.
Procedure, shortened: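 Masliner-normalised scans of fluorescent anti-GST signal were the basis for scoring. That signal came from GST-tagged yeast transcription factors applied at about 100-200 nM to double-stranded universal all-10-mer Agilent arrays on fresh or once-stripped slides. Each ungapped eight-base word, pooled with its reverse complement, received an E-score from the Universal PBM Analysis Suite.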

Sequence | PBM E-score
CTAAAGCA | -0.0723
ATGTATCG | 0.16
ATCAGGTG | -0.0228
GTGTAAAC | 0.0885
CTAGAGTC | -0.35
AGAGACTC | -0.149
CGAGTGCG | 0.122
AGGCAGGC | -0.212
ATGGACAA | 0.00817
AGGGTATG | 0.0806
CCAATTCC | -0.0324
ATTATCGC | 0.209
CGGAAAAA | 0.13
AACTGTGG | -0.0509
CGCGTCAG | 0.0126
GAGAGGAA | -0.172
ATACTCAT | 0.0877
ACCAGAAC | -0.0452
AGAAAGGA | -0.0576
ATTTAACA | 0.192
AATCAAAT | 0.0206
GCACTCAA | -0.147

Sequence | PBM E-score
ACCCCGGA | -0.154
TGTACACA | 0.133
ATTAAGAC | -0.0411
CCTGATTC | -0.163
ATATCACG | 0.251
CGCATAAA | 0.193
ACCTGGGC | -0.249
GGTTGAAC | -0.0634
CATTAACG | -0.0131
AAGAATCA | 0.144
GCGTGTCC | -0.0468
ACACATGT | 0.0996
CATTCAGA | 0.134
ATCCGCTA | -0.0463
ACTACTTG | 0.0469
ATTTCTAC | 0.107
GCACGTGA | -0.00736
AACTTAAC | 0.174
CAATCCCG | -0.026
GAAGCACA | -0.0852
ATACCGTG | 0.0526
CCCCGGGG | -0.127

Sequence | PBM E-score
AACGTACT | 0.0968
TCCAATAA | 0.164
AAGGCAAT | 0.183
ATAGCCTG | -0.229
AAGCCCAG | -0.233
GGTGTTGA | -0.0229
CGCCCCGC | -0.0223
ACATAGAC | 0.076
GACTGCAA | -0.135
ACACATCC | -0.196
AAAGGATT | 0.0172
CAACCACA | 0.0622
CTGACAAA | 0.136
AAAAGGCA | 0.148
AAAGTGCT | -0.0406
AGCACCGA | 0.0242
ATACTGGA | 0.113
AAGATAGC | -0.0979
AAGCTTTG | -0.087
ATGTGAGC | -0.121
TCAGGTCA | 0.0955
ACTCGTGA | 0.0735

Sequence | PBM E-score
CGTCCCGC | -0.166
AACGTTCG | -0.18
CACCTGCG | -0.0641
ATATTGGC | 0.0965
CCGGGTGA | -0.154
CTCGGCAG | -0.163
AAGTGCGT | 0.0635
AAGCACCT | -0.123
GCATAAAA | 0.215
GTATTCAA | 0.138
ACGGAGCG | 0.126
AACAGAAT | 0.0264
ACTTTAAT | 0.107
ATGCAGTA | 0.122
GAAAGAGA | 0.0803
ACCGTCCC | -0.173
CTTCTAGA | -0.0315
ATCCGCTG | -0.175
AACTTCCG | -0.133
ACTTCTAA | -0.0568
GCCCGTCC | -0.319
TACTTGCA | 0.0481

Sequence | PBM E-score
ACGGTACG | 0.0425
CCTACATA | -0.19
GGGTCTGA | -0.149
AGTCGAAA | 0.0306
AGGTTCTG | -0.0864
GTGGCATA | -0.0571
TGCCAGAA | -0.153
GAGAAGAA | -0.0406
ACTGAGAG | -0.0714
AGCGATTG | -0.196
GTACCCGA | -0.287
ACACTGCT | -0.05
CTCTCCGA | -0.206
GATACACA | 0.0163
CATTTTGG | 0.0969
CTAAATCA | 0.0639
AGAAATAG | 0.102
AGGACATA | -0.0464
GACATAAA | 0.276
GTCCTGTA | -0.106
GTATCCTA | -0.109
